Measured values from PubChem BioAssay AID1745849 (National Center for Advancing Translational Sciences (NCATS), 2022).
The whole screen tested about 2,100 compounds, of which about 320 (15%) were called active. Inconclusive means that the source gave no clear call. Such entries were picked first, then a sample of the others. Calls come from the whole dose curve; as a rule, active = well fitted cell-killing curve with a large enough effect; inconclusive = small, poorly fitted or top-dose-only effect, or effect the other way; inactive = flat fitted curve, though single readings scatter. Potencies beside an inconclusive call are fits to weak or partial responses and may not hold up.

Test: Viability Counterscreen for CMV-Luciferase Assay of Inhibitors of ATXN expression; note: nearly all actives have a fitted effect of over 55% in size
Conditions: HEK-293 CMV-luciferase cells viability, protease fluorescence, 24 h
How it was run: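 Cells: HEK-293/CMV-luc in phenol-red-free DMEM, 2 hr settle. Cpd dose, 24 hr, 37 °C, 5% CO2. Viability: Gly-Phe-AFC 25 uM final, 30 min, fluor. Then SteadyGlo, 5 min RT, lumin.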
Potency is the fitted concentration of half-maximal effect; tags give direction and shape of the fitted curve.

Row | SMILES | Potency
1 | C/C(=N\NC(=O)CN1CCCCC1)c1ccccc1O | inconclusive: 1 µM [cytotoxic, partial curve, poor fit]
2 | CN(C)CCn1c2ccccc2c2nc3ccc([N+](=O)[O-])cc3cc21 | inconclusive: 3.55 µM [cytotoxic, full curve, poor fit]
3 | Cc1ccc2nc3cc([N+](=O)[O-])cc([N+](=O)[O-])c3cc2c1 | active: 11.2 µM
4 | CN(C)CCNC(=O)c1cccc(-c2cnc3c(NC=O)cc(-c4cccs4)cn23)c1 | inactive
5 | O=C(NC(c1ccccc1)c1ccc2ccccc2n1)C1CCN(CCOc2ccc(Cl)cc2Cl)CC1 (stereo unspecified) | active: 17.8 µM
6 | Cc1cccc(N2CCN(C(=O)CC(NC(=O)c3ccccc3Cl)c3ccccc3)CC2)c1C (stereo unspecified) | inconclusive: 17.8 µM [cytotoxic, single point]
7 | CCCNC(=O)c1ccc2c(=O)c(O)c(-c3ccc(C)cc3)[nH]c2c1 | inconclusive: 28.2 µM [rising, partial curve]
8 | O=C(N/N=C/c1c(O)ccc2ccccc12)c1ccc(CO)nc1 | inconclusive: 39.8 µM [rising, single point]
9 | O=C(Oc1c(CN2CCOCC2)cc(Cl)c2cccnc12)c1ccccc1 | inactive
10 | Cn1nnnc1Sc1ncnc2scc(-c3ccc[nH]3)c12 | inconclusive: 11.2 µM [cytotoxic, partial curve, poor fit]
11 | O=C(N/N=C(\Cc1ncc[nH]1)c1ccccc1)c1ccncc1 | inconclusive: 14.1 µM [cytotoxic, partial curve, poor fit]
12 | Cn1c(/C=C/c2ccc(Cl)cc2)c([N+](=O)[O-])c(=O)n(C)c1=O | active: 12.6 µM
13 | COc1ccccc1-c1cc2nc(-c3ccccc3)cc(N3CCN(C(=O)c4ccco4)CC3)n2n1 | inconclusive: 5.01 µM [cytotoxic, full curve]
14 | COc1ccc(CSCC(=O)N/N=C/c2ccccc2O)cc1 | inconclusive: 17.8 µM [cytotoxic, partial curve]
15 | CCCC(=O)NC(c1ccc(Cl)cc1Cl)c1ccc2cccnc2c1O (stereo unspecified) | inconclusive: 3.55 µM [cytotoxic, partial curve, poor fit]
16 | CCc1nc2ccc(C(=O)Nc3cc(-c4ccccc4)ccc3OC)cn2c1N(CC)CC(=O)N(C)C | inconclusive: 22.4 µM [cytotoxic, single point]
17 | COc1ccc(/C=N/Nc2cc(N3CCCC3)nc(N3CCCC3)n2)cc1 | active: 2.82 µM
18 | Cc1cc(C)c2nc(N(CCCN(C)C)C(=O)c3ccc4c(c3)OCCO4)sc2c1 | active: 31.6 µM
19 | CCc1ccc(OCCNc2cc(N3CCNC(C)C3)ccc2[N+](=O)[O-])cc1 (stereo unspecified) | inconclusive: 20 µM [cytotoxic, partial curve, poor fit]
20 | COc1ccc(C(=O)c2c(C)c3ccccc3n2CC(O)CNC(C)C)cc1 (stereo unspecified) | active: 17.8 µM
21 | O=C(CP(=O)(c1ccccc1)c1ccccc1)N/N=C/c1cc(Br)cc(Br)c1O | inactive
22 | NC(=O)CC(NC(=O)Cc1ccc(Br)cc1)c1ccc(NC2CCCC2)c([N+](=O)[O-])c1 (stereo unspecified) | active: 3.16 µM

Row | SMILES | Potency
23 | NC(Cc1ccc(F)cc1)c1csc(NC(=O)NC(c2ccccc2)c2ccccc2)n1 (stereo unspecified) | inconclusive: 31.6 µM [cytotoxic, single point]
24 | COc1ccc(/C(N)=N/OC(=O)N2CCOCC2)cc1 | inconclusive: 5.62 µM [cytotoxic, single point]
25 | Cc1nc(SCC(=O)Nc2ccc(S(=O)(=O)N3CCOCC3)cc2)c2c(C)c(C)sc2n1 | inconclusive: 3.55 µM [cytotoxic, full curve]
26 | OC[C@@H]1[C@@H](c2ccc(F)cc2)C(c2ccccc2)=NN1c1ccccc1 | inconclusive: 35.5 µM [rising, partial curve]
27 | COc1ccc(C(=O)c2sc(Nc3ccccc3)nc2N)cc1OC | inconclusive: 3.55 µM [cytotoxic, full curve]
28 | CCC(=O)OCCNc1cc(Sc2nc3ccccc3[nH]2)c2nonc2c1[N+](=O)[O-] | inconclusive: 3.16 µM [cytotoxic, single point]
29 | N#CCc1nc2ccccc2c(=O)[nH]1 | inactive
30 | CN(c1ccccc1)S(=O)(=O)c1cccc(NC(=O)c2cc(=O)c3ccccc3o2)c1 | inconclusive: 20 µM [cytotoxic, single point]
31 | Cc1cccc(OCCCC(=O)Nc2nc3ccccc3[nH]2)c1 | inactive
32 | Cc1cccc2sc(NNC(=O)c3ccc(S(=O)(=O)N4CC(C)CC(C)C4)cc3)nc12 (stereo unspecified) | inconclusive: 4.47 µM [cytotoxic, full curve, poor fit]
33 | CCCCOc1ccc(NC2=NC3(CCCC3)N=C(N)N2)cc1 | inactive
34 | COc1cc(CC(=O)Nc2nc(-c3ccc(F)c(F)c3)cs2)cc(OC)c1OC | inconclusive: 11.2 µM [cytotoxic, partial curve, poor fit]
35 | CC1(C(=O)N/N=C/c2ccc([N+](=O)[O-])o2)CC1(Br)Br (stereo unspecified) | inconclusive: 17.8 µM [cytotoxic, partial curve, poor fit]
36 | O=c1cc(N2CCN(c3ccccc3)CC2)[nH]c(=O)n1C1CCCCC1 | inconclusive: 14.1 µM [cytotoxic, partial curve, poor fit]
37 | N#C/C(=C(/O)COC(=O)CSc1ccc(Cl)cc1)c1nc2ccccc2[nH]1 | inconclusive: 22.4 µM [cytotoxic, partial curve, poor fit]
38 | CNc1ccc(Br)cc(C(=O)/C=C/c2ccc3c(c2)OCO3)c1=O | inactive
39 | COc1cc(/C=N/Nc2snc(SC)c2C#N)cc(OC)c1OC | inconclusive: 3.55 µM [cytotoxic, full curve]
40 | Cc1nc2ccc(NC(=O)c3cccc(S(=O)(=O)N(C)c4ccccc4)c3)cc2s1 | inconclusive: 8.91 µM [cytotoxic, single point]
41 | CC(=O)c1cc(CN2CCC(C(=O)Nc3cccc(-c4cscn4)c3)CC2)cs1 | inactive
42 | CCN(CC)c1cc(C)c2cc(NC(=O)c3ccccc3OC)ccc2n1 | inconclusive: 31.6 µM [cytotoxic, single point]
43 | CCOC(=O)/C=C/C(=O)Nc1ccc(Oc2ccccc2)cc1 | inactive
44 | CCc1nc(N)nc(N)c1-c1ccc(N(C)Cc2ccccc2)c([N+](=O)[O-])c1 | inconclusive: 12.6 µM [cytotoxic, partial curve, poor fit]

Row | SMILES | Potency
45 | CC(Sc1ccc(Cl)cc1)C(=O)NNC(=O)c1ccccc1O (stereo unspecified) | inactive
46 | OC(CN1CCCCC1)Cn1c2ccc(Cl)cc2c2cc(Cl)ccc21 (stereo unspecified) | inconclusive: 3.16 µM [cytotoxic, single point]
47 | COc1ccccc1C(=O)Nc1nc(-c2ccc(S(=O)(=O)N3CCOCC3)cc2)cs1 | inactive
48 | Cc1ccc2sc(N(CCCN(C)C)C(=O)c3ccc(S(=O)(=O)N4CCCCCC4)cc3)nc2c1C | inconclusive: 25.1 µM [cytotoxic, single point]
49 | COc1cccc(C=NNC(=O)c2ccncc2)c1O | inconclusive: 8.91 µM [cytotoxic, partial curve, poor fit]
50 | Nc1ccc(OC(=O)Nc2ccc(O)cc2)cc1 | inconclusive: 12.6 µM [cytotoxic, partial curve]
51 | Cc1cccc(NC(=O)CCC(=O)N/N=C/c2ccc(O)cc2O)c1 | inconclusive: 0.794 µM [cytotoxic, full curve]
52 | NC(c1ccccc1)c1csc(NC(=O)Nc2ccccc2Oc2ccccc2)n1 (stereo unspecified) | inactive
53 | CCOc1ccc(NC(=O)Nc2nnc(CC(=O)NCc3ccccc3)s2)cc1 | inactive
54 | CCCCCn1c(CN2CCN(c3cccc(Cl)c3)CC2)nc2c1c(=O)[nH]c(=O)n2C | inconclusive: 25.1 µM [cytotoxic, single point]
55 | Cc1cnc(NC(=O)C2CC(=O)N(c3cccc(Cl)c3)C2)s1 (stereo unspecified) | inconclusive: 1.12 µM [cytotoxic, full curve]
56 | COc1cc(OC)c(OC)cc1/C=C1\CC(C)C/C(=C\c2cc(OC)c(OC)cc2OC)C1=O (stereo unspecified) | inactive
57 | COc1ccc(OC)c(NC(=O)COC(=O)c2c3c(nc4ccccc24)CCCC3)c1 | inconclusive: 3.55 µM [cytotoxic, single point]
58 | Cc1nc2ccccc2n1C1CCN(CC(=O)Nc2ccccc2Br)CC1 | inconclusive: 3.16 µM [cytotoxic, partial curve, poor fit]
59 | CCC(=O)NC(c1ccc(OC)c(OC)c1)c1cc(Cl)c2cccnc2c1O (stereo unspecified) | inconclusive: 2 µM [cytotoxic, partial curve, poor fit]
60 | NC(Cc1ccc(Cl)cc1)c1csc(Nc2cc(NCCCO)ncn2)n1 (stereo unspecified) | inconclusive: 10 µM [cytotoxic, partial curve, poor fit]
61 | CCc1ccc(N2CC(C(=O)N/N=C/c3cc([N+](=O)[O-])ccc3O)CC2=O)cc1 (stereo unspecified) | inconclusive: 20 µM [cytotoxic, partial curve, poor fit]
62 | O=C(CSC1=NNC(c2ccccn2)S1)Nc1ccc(C(F)(F)F)cc1 (stereo unspecified) | active: 14.1 µM
63 | O=C(Nc1cccc(S(=O)(=O)c2cccc(NC(=O)c3ccco3)c2)c1)c1ccco1 | inconclusive: 31.6 µM [cytotoxic, partial curve]
64 | Cc1cccc(C2=NN(c3ccccc3)[C@H](CO)[C@H]2c2ccc(Cl)cc2)c1 | inconclusive: 3.16 µM [rising, partial curve]
65 | CC(C)(C)c1ccc(Oc2ccc(N)cn2)cc1 | inactive
66 | Cc1ccc(NC(=O)/C=C/c2ccc(S(=O)(=O)N3CCOCC3)cc2)cc1S(=O)(=O)N(C)C | inconclusive: 3.55 µM [cytotoxic, single point]
